Assay results: the supplement of paper PMC10369915
This is one part of the list. No stated cut-off is given here; in the data, active = 3.2 or more and inactive = the rest. The signal is at background level for most entries.

molecular target: SHP2 C-SH2 domain E139D; assay: enrichment score (SH2-bound / input frequency) (ratio); bacterial display of known human phosphotyrosine sites (pTyr-Var adds point mutants) read by sequencing; higher = stronger binding; tyrosines were phosphorylated by kinases first; details: peptide library: pTyr-Var
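Further: displayed peptides selected on beads carrying the immobilized SH2 domain, with library peptides lacking any tyrosine serving as negative controls.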

Binder | enrichment score
NRLTDYFEPLL [BBS10_Y536_YF] | inactive: 0.998
TMKSHYMELYD [BBS2_Y644_R643H] | inactive: 0.885
TMKSHYMELFD [BBS2_Y644_R643H_YF] | inactive: 1.11
RYMELYDLNRD [BBS2_Y648] | inactive: 0.929
HFMELYDLNRD [BBS2_Y648_R643H_YF] | inactive: 1.74
NALVQYQEMEK [BBS4_Y395_A393V] | inactive: 0.598
LIHLHYIRKDY [BBS4_Y43] | active: 3.72
LIHLHYIRRDY [BBS4_Y43_K46R] | inactive: 1.25
YIRKDYEACKA [BBS4_Y48] | inactive: 0.628
VDSGVYAVPPP [BCAR1_Y410] | inactive: 0.63
VMSMNYRVGAL [BCHE_Y174_V170M] | inactive: 1.07
QDIMAYRGREV [BCL6_Y157] | inactive: 0.336
REEKNYKLKET [BCLAF1_Y459] | inactive: 0.533
REEKNYKHKET [BCLAF1_Y459_L461H] | inactive: 0.986
REEKNDKLKET [BCLAF1_Y459_Y459D] | inactive: 0.451
KMATAYIRRMS [BCO1_Y264] | inactive: 0.205
KMATAYIRSMS [BCO1_Y264_R267S] | inactive: 0.836
GKTQQYDCKWY [BCR_Y751] | inactive: 0.974

molecular target: SHP2 C-SH2 domain wild-type; assay: as above; details: peptide library: pTyr-Var

Binder | enrichment score
NRLTDYFEPLL [BBS10_Y536_YF] | inactive: 1
TMKSHYMELYD [BBS2_Y644_R643H] | inactive: 1.37
TMKSHYMELFD [BBS2_Y644_R643H_YF] | inactive: 1.29
RYMELYDLNRD [BBS2_Y648] | inactive: 1.06
HFMELYDLNRD [BBS2_Y648_R643H_YF] | inactive: 2.08
NALVQYQEMEK [BBS4_Y395_A393V] | inactive: 0.813
LIHLHYIRKDY [BBS4_Y43] | active: 3.31
LIHLHYIRRDY [BBS4_Y43_K46R] | inactive: 0.856
YIRKDYEACKA [BBS4_Y48] | inactive: 0.557
VDSGVYAVPPP [BCAR1_Y410] | inactive: 0.534
VMSMNYRVGAL [BCHE_Y174_V170M] | inactive: 0.884
QDIMAYRGREV [BCL6_Y157] | inactive: 0.562
REEKNYKLKET [BCLAF1_Y459] | inactive: 0.452
REEKNYKHKET [BCLAF1_Y459_L461H] | inactive: 0.891
REEKNDKLKET [BCLAF1_Y459_Y459D] | inactive: 0.53
KMATAYIRRMS [BCO1_Y264] | inactive: 0.522
KMATAYIRSMS [BCO1_Y264_R267S] | inactive: 0.717
GKTQQYDCKWY [BCR_Y751] | inactive: 0.818

molecular target: SHP2 N-SH2 domain L43F; assay: as above; details: peptide library: pTyr-Var

Binder | enrichment score
NRLTDYFEPLL [BBS10_Y536_YF] | inactive: 1.08
TMKSHYMELYD [BBS2_Y644_R643H] | inactive: 2.79
TMKSHYMELFD [BBS2_Y644_R643H_YF] | active: 3.52
RYMELYDLNRD [BBS2_Y648] | inactive: 2.46
HFMELYDLNRD [BBS2_Y648_R643H_YF] | inactive: 2.65
NALVQYQEMEK [BBS4_Y395_A393V] | inactive: 0.884
LIHLHYIRKDY [BBS4_Y43] | active: 3.8
LIHLHYIRRDY [BBS4_Y43_K46R] | inactive: 1.04
YIRKDYEACKA [BBS4_Y48] | inactive: 0.611
VDSGVYAVPPP [BCAR1_Y410] | inactive: 0.645
VMSMNYRVGAL [BCHE_Y174_V170M] | inactive: 0.958
QDIMAYRGREV [BCL6_Y157] | inactive: 0.618
REEKNYKLKET [BCLAF1_Y459] | inactive: 0.451
REEKNYKHKET [BCLAF1_Y459_L461H] | inactive: 0.738
REEKNDKLKET [BCLAF1_Y459_Y459D] | inactive: 0.388
KMATAYIRRMS [BCO1_Y264] | inactive: 0.267
KMATAYIRSMS [BCO1_Y264_R267S] | inactive: 0.767
GKTQQYDCKWY [BCR_Y751] | inactive: 0.819

molecular target: SHP2 N-SH2 domain T42A; assay: as above; details: peptide library: pTyr-Var

Binder | enrichment score
NRLTDYFEPLL [BBS10_Y536_YF] | inactive: 0.965
TMKSHYMELYD [BBS2_Y644_R643H] | active: 4.91
TMKSHYMELFD [BBS2_Y644_R643H_YF] | active: 7.68
RYMELYDLNRD [BBS2_Y648] | active: 4.35
HFMELYDLNRD [BBS2_Y648_R643H_YF] | inactive: 1.39
NALVQYQEMEK [BBS4_Y395_A393V] | inactive: 1.88
LIHLHYIRKDY [BBS4_Y43] | inactive: 2.71
LIHLHYIRRDY [BBS4_Y43_K46R] | inactive: 0.907
YIRKDYEACKA [BBS4_Y48] | inactive: 0.613
VDSGVYAVPPP [BCAR1_Y410] | inactive: 0.47
VMSMNYRVGAL [BCHE_Y174_V170M] | inactive: 0.971
QDIMAYRGREV [BCL6_Y157] | inactive: 0.433
REEKNYKLKET [BCLAF1_Y459] | inactive: 0.378
REEKNYKHKET [BCLAF1_Y459_L461H] | inactive: 0.907
REEKNDKLKET [BCLAF1_Y459_Y459D] | inactive: 0.307
KMATAYIRRMS [BCO1_Y264] | inactive: 0.252
KMATAYIRSMS [BCO1_Y264_R267S] | inactive: 0.643
GKTQQYDCKWY [BCR_Y751] | inactive: 0.659

molecular target: SHP2 N-SH2 domain T52S; assay: as above; details: peptide library: pTyr-Var

Binder | enrichment score
NRLTDYFEPLL [BBS10_Y536_YF] | inactive: 0.948
TMKSHYMELYD [BBS2_Y644_R643H] | inactive: 3.01
TMKSHYMELFD [BBS2_Y644_R643H_YF] | active: 3.92
RYMELYDLNRD [BBS2_Y648] | inactive: 3.01
HFMELYDLNRD [BBS2_Y648_R643H_YF] | inactive: 1.93
NALVQYQEMEK [BBS4_Y395_A393V] | inactive: 0.818
LIHLHYIRKDY [BBS4_Y43] | active: 3.43
LIHLHYIRRDY [BBS4_Y43_K46R] | inactive: 1.08
YIRKDYEACKA [BBS4_Y48] | inactive: 0.749
VDSGVYAVPPP [BCAR1_Y410] | inactive: 0.712
VMSMNYRVGAL [BCHE_Y174_V170M] | inactive: 1.03
QDIMAYRGREV [BCL6_Y157] | inactive: 0.44
REEKNYKLKET [BCLAF1_Y459] | inactive: 0.621
REEKNYKHKET [BCLAF1_Y459_L461H] | inactive: 0.491
REEKNDKLKET [BCLAF1_Y459_Y459D] | inactive: 0.44
KMATAYIRRMS [BCO1_Y264] | inactive: 0.212
KMATAYIRSMS [BCO1_Y264_R267S] | inactive: 0.731
GKTQQYDCKWY [BCR_Y751] | inactive: 0.659

molecular target: SHP2 N-SH2 domain wild-type; assay: as above; details: peptide library: pTyr-Var

Binder | enrichment score
NRLTDYFEPLL [BBS10_Y536_YF] | inactive: 0.874
TMKSHYMELYD [BBS2_Y644_R643H] | inactive: 1.21
TMKSHYMELFD [BBS2_Y644_R643H_YF] | inactive: 1.36
RYMELYDLNRD [BBS2_Y648] | inactive: 1.08
HFMELYDLNRD [BBS2_Y648_R643H_YF] | inactive: 2.31
NALVQYQEMEK [BBS4_Y395_A393V] | inactive: 0.829
LIHLHYIRKDY [BBS4_Y43] | inactive: 2.75
LIHLHYIRRDY [BBS4_Y43_K46R] | inactive: 0.961
YIRKDYEACKA [BBS4_Y48] | inactive: 0.614
VDSGVYAVPPP [BCAR1_Y410] | inactive: 0.747
VMSMNYRVGAL [BCHE_Y174_V170M] | inactive: 1.25
QDIMAYRGREV [BCL6_Y157] | inactive: 0.439
REEKNYKLKET [BCLAF1_Y459] | inactive: 0.433
REEKNYKHKET [BCLAF1_Y459_L461H] | inactive: 0.725
REEKNDKLKET [BCLAF1_Y459_Y459D] | inactive: 0.438
KMATAYIRRMS [BCO1_Y264] | inactive: 0.265
KMATAYIRSMS [BCO1_Y264_R267S] | inactive: 0.669
GKTQQYDCKWY [BCR_Y751] | inactive: 1.17
